System: 3TC resistant HBV (DM2)
Assay: Activity against 3TC resistant HBV (DM2, L526MM550V) in transfected HepG2 cells
Assay type: cell-based, Hepatitis B virus
Details: DM2, HepG2, 9 days; in words

O=C1OCc2c1cc1ccc3c(c1c2-c1ccc2c(c1)OCO2)OCO3 [Compound 145, 7,8-methylenedioxy-1-(3',4'-methylenedioxyphenyl)-2-hydroxymethylnaphthalene-3-carboxylic acid lactone] was tested, and the “effect on 3TC resistant HBV” value was “essentially the same effect on 3TC resistant HBV (DM2) as on 3TC sensitive HBV”.
